Laboratory results from the supplement of paper PMC3334620.
In all, about 33,000 sequences were measured (“E-score (-0.5 to 0.5)”: median about -0.017, highest 2% from about 0.3 on). The list shows a part of the results.

target: T1, Sut1 (UniProt P53032); experiment: PBM E-score (8-mer binding enrichment) (E-score (-0.5 to 0.5)); higher = stronger / more preferred TF binding; most listed sequences are background and not binding sites; conditions: protein concentration: 200 nM; construct: GST-full length
T1 sequence: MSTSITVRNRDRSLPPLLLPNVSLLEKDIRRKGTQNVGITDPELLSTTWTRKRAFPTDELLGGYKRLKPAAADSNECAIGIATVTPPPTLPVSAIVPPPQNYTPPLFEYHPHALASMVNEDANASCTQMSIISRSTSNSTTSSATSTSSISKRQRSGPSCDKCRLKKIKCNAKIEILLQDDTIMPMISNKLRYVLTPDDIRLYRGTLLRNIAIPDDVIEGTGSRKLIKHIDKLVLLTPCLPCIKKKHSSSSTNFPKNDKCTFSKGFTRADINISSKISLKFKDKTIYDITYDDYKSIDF
Protocol: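 Universal 'all 10-mer' protein binding microarrays (Agilent AMADID 015681) probed with GST-tagged S. cerevisiae TFs (full-length or DBD) made by in vitro transcription/translation (PURExpress), about 100-200 nM. Bound TF was detected with fluorescent anti-GST. Each ungapped 8-mer (which stands for itself and its reverse complement) is scored by the PBM enrichment score (E-score), a modified Wilcoxon-Mann-Whitney statistic from -0.5 to +0.5, computed with the Universal PBM Analysis Suite. Scale: above 0.35 generally sequence-specific binding.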

Sequence	PBM E-score
GTTTGTTA	0.122
ATGGCAGA	-0.0417
ATTGATCG	0.0773
CAACGTGA	0.0149
CCGCGCCG	-0.00447
CCCGAGTC	0.00022
ATGATGCG	-0.0816
TACGTTCA	0.0513
CACACCAC	-0.032
AATCCTTC	-0.0568
ACACCAAC	-0.0314
GGTCCGAA	0.437
ACGCTACA	0.11
GCGGAACC	-0.0529
TACATATA	0.261
CCATCTTC	0.0635
TCACAGGA	-0.0247
TGTTGTAA	0.156
AGACTAGA	-0.184
CCTTGCCC	0.0934
AAAACTTA	0.274
AGCCAAGG	-0.188
ATTTACAA	0.181
TCCGTCAA	0.286
ATAACTTG	0.043

Sequence	PBM E-score
AATAACCG	0.131
AATTTCAG	-0.00523
ACGGCCCC	-0.423
ACAGCAAG	0.0276
GAAGCGGC	-0.213
AACTAGCC	-0.0509
GACGTGAA	-0.149
AGGGGGGC	-0.332
CTAGTCGC	-0.144
CTAGACAA	0.0963
CAGGAACA	0.0351
CCCGATAA	-0.131
TCTGTGAA	0.13
TATATTCA	0.281
GTATTGCA	-0.031
CCAAGTGG	-0.155
CGCTCGGA	0.29
TAGTACCA	0.0484
CAGTTATA	0.119
ACCTTCCT	-0.118
CCGTAGAC	0.084
AACCCCTC	-0.198
CAATAACG	0.0501
ACGTGTTC	-0.037
TACGCTAA	-0.00118

Sequence	PBM E-score
TATATGGA	0.114
CAAAAAAA	0.267
CATCAGCG	-0.175
AGTTCCAC	0.0638
CGGCGCGC	-0.0694
ATCCAAAC	0.116
AGATTCAC	-0.0436
AACCAGCC	-0.0257
CTTATTTA	0.101
TAGGCCGA	-0.0748
GCACCGGA	0.338
CCAATACC	0.0874
AAAAGGTC	-0.0965
CAACATGC	-0.0131
CTGTTTTA	0.091
CGAGTGGA	-0.109
ACCTAGAT	-0.183
CGTCCGTA	0.0823
CAACAATC	0.113
CTTGTCCA	-0.139
ATAGCGAA	0.157
GTCACAGA	-0.134
CAACTCGC	-0.0138
CCCTCTAA	-0.262
CACGTACG	-0.207

Sequence	PBM E-score
AGACGGTC	-0.103
TGAGAGAA	0.138
AACGGGAC	-0.0788
TGTTCTAA	0.119
CACCCCGA	0.134
CGCGCGCA	-0.0131
ATCCTCGC	-0.216
GCACGTCC	-0.142
ACCCGGGC	-0.0147
ATAAGCAG	0.0365
CCTAGAGG	-0.323
AAGTTACT	0.0828
GTTGACCA	-0.067
ACTATACC	0.102
CGTACGGA	0.228
TCAATACA	0.141
ATAACACC	0.188
GTGTGCTA	0.021
AGCGAGTG	-0.106
AATGAAAG	0.194
AAGAGTCA	-0.0453
AGCCGAGC	-0.0263
ATATCTCG	0.118
CATGCGTC	-0.0635
CGGTATGA	-0.0057

Sequence	PBM E-score
GAGCGTCA	-0.161
GAGCGAAC	-0.0893
GGTGTCTA	0.0163
GGGTGAAA	0.0413
AGATTAAG	0.173
AGGGTAGC	-0.271
AGTCGACG	0.157
AGAGCACC	-0.249
TGGCGCAA	-0.118
GCCGTGAA	0.0139
ATTAACTC	0.261
ACGTGATA	0.0696
AAAAAAGA	0.176
CTACTCGA	0.0576
AATTAGCA	0.177
TCACCGAA	0.155
ACATAAAC	0.138
AGCGGACA	0.107
ATTAACGC	-0.082
TCGCCAGA	-0.127
AATAAACC	0.224
ACCGAAAG	0.0623
CATACTCG	-0.056
AGACAGCA	0.0488
TACTACAA	0.276

Sequence	PBM E-score
AAGTGTTA	0.0732
ATGGGCCA	0.0249
ACACGAGA	-0.249
CAGTCCAA	-0.0383
AAATGGTT	0.0504
AATATAAC	0.294
CGCCCGAC	-0.147
ACGAGAAG	0.0931
GTAGGATA	0.0282
CTAGTACC	-0.122
TAAGCATA	0.122
ATGAAGTC	0.107
AATCCACG	0.157
CTAACGGC	0.0477
CGACGGGC	-0.197
CATTCGCG	0.071
CAAGCATG	0.0043
AATCGGGC	-0.0945
CAATTCAA	0.0614
ACCTTAAT	-0.0174
ACACGAGC	-0.169
ATGACTCG	-0.0426
GGATTGCC	-0.146
ATTTAAAT	0.232
AACTTAGC	-0.0324

Sequence	PBM E-score
ACAATCCA	0.255
AGATAAAG	0.0894
CAGCTGCC	-0.0921
AGTGTTTA	0.162
AGCCAAGA	-0.0666
ATTTCGGC	0.0959
CCCTTTGC	-0.108
ACTTTGCC	0.0133
AGTGACGG	0.103
GTATATAA	0.277
ATTGGACG	-0.0333
AGAGAAAA	0.0987
TCCGATCA	0.286
GTCAGTGA	-0.0931
CACTACGG	0.103
ACGACGGC	-0.319
ACATATAT	0.266
ACCCCTGA	-0.255
AACCCCGG	0.438
ATGGATTC	-0.121
CCACATCA	0.00393
ACTCTGTG	-0.0954
